Experimental data taken from the RNAGym collection of RNA variant scans (doi:10.1093/nar/gkz1192).
Read counts are not given, so values of variants with three or more changes are uncertain.

B1: CPEB3 Ribozyme (parent)
chain: UAACAGGGGGCCACAGCAGAAGCGUUCACGUCGCAGCCCCUGUCAGAUUCUGGUGAAUCUGCGAAUUCUGCUGUAUAUCUC

Variants of: B1
Assay: self-cleavage, relative activity (ratio to wild type); higher = more cleavage; in vitro, sequencing
In short: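 Relative activity was defined as the cleaved/total read fraction for a variant divided by the same fraction for the unmutated ribozyme. CPEB3 self-cleaving ribozyme libraries were made by rounds of error-prone PCR, barcoded, and transcribed in vitro with T7 RNA polymerase for 5 hours at 37°C, and cleavage ran through transcription plus a 15 min DNase I step before EDTA. Illumina sequencing of template-switched reverse transcripts gave the reads, and DNA sequencing mapped the barcodes. Averages come from three batches, using variants with at least 5 reads.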

| Variant | self-cleavage |
| --- | --- |
| A3C A20G U25C A28G A45U A56G | 0.22 |
| A2U A13G G33A U43A A45U U69C | 0.07 |
| A2U A15U A18G A35U U41G U66A | 0.11 |
| A2U A3G A5G G19U U76A | 0.17 |
| A2U A13G U25C C68U | 0.12 |
| A2U A3G U31A A47G A64U A77G | 0.26 |
| A3C A13U A21G U26A U41C G42A A65G | 0.07 |
| A2U C59G U60C A65G | 0.12 |
| A2U U25C C29A C62A A77G C81U | 0.07 |
| A2U U41A G73A | 0.3 |
| A2G U25A U26C U78C | 0.25 |
| A2U U51C A57U | 0.43 |
| A2G U66C U80A | 0.36 |
| A2G G36A U60A U67A | 0.05 |
| A2U A18U C68A | 0.16 |
| A3C G42A A64G | 0.2 |
| A3C A5C G36A | 0.33 |
| A2G U26A U31C A65G U69C | 0.19 |
| A2G U25C U69A | 0.22 |
| A2G U26G U67G | 0.24 |
| A2U U26C U51C U78C | 0.45 |
| A2U A20U A47U | 0.29 |
| A2G U43C U54A U78C | 0.37 |
| A2U U43C A45U A57U | 0.23 |

| Variant | self-cleavage |
| --- | --- |
| A2G U31C C79U | 0.73 |
| A3C A18G U41C U48C U69A | 0.22 |
| A2G U25C U31C A47G A64U | 0.25 |
| A3C A28G U31C G33A U60A U78A | 0.04 |
| A2U U41C U74C | 1.25 |
| A2U U31A A35U A45U U49C A77G | 0.07 |
| A3C G16A A64G A65G U66C U67A U76A | 0.1 |
| A3C C32U A35G | 0.45 |
| A2U A15U U26C A57G | 0.4 |
| A2G U31C A35G U60G | 0.24 |
| A2G U25C C39U | 0.51 |
| A2U U49C G63A U72C | 0.13 |
| A2U A15U A45U U51A U69C | 0.28 |
| A3C U26C C29A U49C | 0.09 |
| A3C C37U C50G U76A | 0.38 |
| A2U A21U A28C C37G G55U U58C U69A | 0.07 |
| A3C A15G U25C A57G | 0.7 |
| A2U A3U G19U U48C C71A U72C | 0.17 |
| A3C U26A A35G U43A U67A | 0.17 |
| A2U A21U U26A A35U | 0.05 |
| A2G U31A U49G | 0.56 |
| A3C A13U U51A | 0.72 |
| A3C A5G A35U A64U | 0.25 |
| A3C A13U A15G A20G U41C | 0.62 |

| Variant | self-cleavage |
| --- | --- |
| A3C U49C A77G | 0.53 |
| A2U A18U C38G U78A C81U | 0.5 |
| A2U C14U A64G U69A U72C U76A | 0.19 |
| A2U A5U A13G A64G | 0.98 |
| A2G U54A U76A | 0.6 |
| A3C U25C U72C U76C | 0.27 |
| A2U U25C U74A | 0.52 |
| A2U A5G A15G U25C A35G A64U | 0.08 |
| A2U U43C A65G U78A | 0.26 |
| A2G U26A U48C U60C | 0.3 |
| A2U C37A C59U U60C | 0.16 |
| A2G U48G A65G U78A | 0.26 |
| A2U A5U G24A G36A U48A | 0.06 |
| A2U A15U U25C U26C A64G | 0.23 |
| A2U A15G A28U A64G U69A | 0.04 |
| A2U A13U A15G U41A U49C | 0.41 |
| A2G U25C A47G U49A U66C | 0.17 |
| A2G U26C A35U U78C | 0.07 |
| A2U A5G G9U C40U U43A U48C A57G | 0.05 |
| A3C U41C U48A | 0.44 |
| A2U A21G U74C | 0.97 |
| A2U A18G A35U U51C | 0.11 |
| A3C A5G G9A U25C A47G U80C | 0.1 |
| A2U A3G C4A A18U U67C | 0.26 |

| Variant | self-cleavage |
| --- | --- |
| A2G U51C U66G | 0.27 |
| A2G U43C U51C U60A | 0.16 |
| A2G U41C U69G | 0.66 |
| A2U A20G U26A C38U A47U U51C U74A | 0.2 |
| A3C A18G A47G U69A A75G U76A | 0.5 |
| A2G U67A U80C | 0.16 |
| A2G U25C U49A A57G | 0.07 |
| A2U G63C U74C | 0.89 |
| A2U C4U U43G U74A | 0.23 |
| A2U A5G U43A U48C A65G | 0.23 |
| A2G U25C U58C | 0.09 |
| A2G U54A A64G | 0.66 |
| A3C A18U U31A A45G U80C | 0.69 |
| A2G U43C U51G | 0.59 |
| A3C A21G U54C U78C | 0.79 |
| A2U G19U A57G | 0.26 |
| A2U A56G A65G | 0.22 |
| A2G G73A U78A | 1.24 |
| A2U C17A U26A A56G | 0.22 |
| A2G U60C C79A | 0.42 |
| A2G U25C A45G C59A | 0.08 |
| A2U A20G G55A | 0.64 |
| A2G U41C C62U U72C | 0.15 |
| A2U U66A A75G | 0.29 |

| Variant | self-cleavage |
| --- | --- |
| A2G U41G A57G A77G | 0.05 |
| A2U C11U A45G | 0.14 |
| A2U A20U U43C U69C A77G | 0.15 |
| A2G U78C U80C | 0.62 |
| A2U A20U A45G A56G U72C | 0.53 |
| A2U A47G A57C | 0.25 |
| A3C A13G A18G C29U G36U U49C U54A | 0.08 |
| A3C U43C U67C C71U | 0.17 |
| A3C A18U U26A C29G U80C | 0.3 |
| A3C A5G A18C U26C C40A | 0.62 |
| A3C A28G A77G | 0.85 |
| A3C U31C U43C A64G U67C A77G | 0.17 |
| A2U A5U A20U A21G U43A | 0.08 |
| A2U U25A U43A U54C U60C U67C | 0.08 |
| A2G U25C A64G A77U | 0.21 |
| A3C A35G U51C U54A A57G | 1.27 |
| A3C A35U C38U | 0.75 |
| A2G U43C U66A | 0.29 |
| A2U G9A A15U A56G C59A U78C | 0.05 |
| A2U A20G C23A U31A U49C U72A U80C | 0.15 |
| A2U A13G U26C A35U | 0.47 |
| A2U U26C U49A | 0.42 |
| A2U A13U A77G | 1.11 |
| A3C G19A A45C U48C U80A | 0.57 |

| Variant | self-cleavage |
| --- | --- |
| A2U A45G U69C | 0.24 |
| A2U A20G A64G | 0.56 |
| A3C U31A U43A C44U U48C | 0.08 |
| A2U C11G C34G C38A | 0.13 |
| A2G U31A A35U A45G U49C C79U | 0.23 |
| A2U C17A U43C U69C U72A | 0.09 |
| A2G U25C G30A U48C U54C A56U U80C | 0.14 |
| A2G U54C U60C A65G | 0.09 |
| A2G U60A U67A | 0.14 |
| A2G U26G U51C A77G U80C | 0.28 |
| A2U U51C U60C U69A U78C | 0.32 |
| A3C A13G G16U A21G G70A U72G | 0.08 |
| A3C U25C A35G A47G U66C U67G | 0.05 |
| A2U A28G U41A U43C U54C A75U | 0.12 |
| A2G U54A U74A | 1.07 |
| A3C A15U A20G U54A A75G | 0.65 |
| A2U C14U U25C | 0.37 |
| A2U A18G C38U U41C U49A A64G U76A | 0.05 |
| A3C A20U U51A U69A U78A | 0.26 |
| A2U A28U U43C U60A | 0.08 |
| A3C U26C A28U G33A U60A U67A U69A | 0.07 |
| A3C A15U C23U U43C U74C A75G | 0.06 |
| A2U A15G U26C A57G U72C | 0.56 |
| A2G U31A A45C G63A A65G | 0.3 |

| Variant | self-cleavage |
| --- | --- |
| A2G U25A C34U U49C | 0.07 |
| A3C A21U U25C U41C A45G A56U | 0.07 |
| A2G U41C U43A | 0.62 |
| A2G U41C U43C | 0.53 |
| A3C G9A A35G C38A G61U U69C | 0.31 |
| A2U G9U A35C U51C | 0.07 |
| A2U A21G U54A | 0.72 |
| A3C A20G U48C U60C U72C | 0 |
| A3C C29U U43A A64G U76G | 0.56 |
| A2G U25C A35G A47U U51C U69A U72A | 0.14 |
| A2G U58A U69A U80A | 0.18 |
| A2G U41C A65G U72C | 0.5 |
| A2U C27U A28G A45C A64U A65G U67C | 0.06 |
| A2U U49C U72A | 0.5 |
| A2G U41G C44G U51C A56G | 0.43 |
| A2U U41C U69C | 0.51 |
| A3C U41C C81A | 1.17 |
| A2U A5G U26C G33A A47G | 0.2 |
| A3C G10A A21U U41A U43C U60C | 0.02 |
| A3C U25C G30A U31C A64U U67A U78C | 0.08 |
| A3C A20U C23U U72A A77G | 0.22 |
| A2U A3G A18G U43G U51C | 0 |
| A3C U43C A75G U80C | 0.52 |
